Assay [1] addresses BMAL1 (mouse (endogenous in MEFs)) (UniProt Q9WTL8). The experiment in a line: co-IP; endogenous proteins from lysates of mouse embryonic fibroblasts (WT; also BMAL1-deficient, SIRT1KO, and CRYdKO stably expressing Myc-CRY1; unsynchronised or Dex-synchronised, harvested at intervals); IP with anti-BMAL1, anti-CK2α, anti-CK2β or anti-CRY1/2, immunoblot. For orientation: A western blot detects proteins with antibodies after separation by electrophoresis.

The chains behind the UniProt entries cited, without tags or fusion partners. Where a name states a change or a piece, a line headed by the entry shows the natural chain unless it says otherwise. A line that says so, or that is headed by a name, gives the form on record, which may keep a tag or linker.
Myc-BMAL1-WT (Q9WTL8, form named): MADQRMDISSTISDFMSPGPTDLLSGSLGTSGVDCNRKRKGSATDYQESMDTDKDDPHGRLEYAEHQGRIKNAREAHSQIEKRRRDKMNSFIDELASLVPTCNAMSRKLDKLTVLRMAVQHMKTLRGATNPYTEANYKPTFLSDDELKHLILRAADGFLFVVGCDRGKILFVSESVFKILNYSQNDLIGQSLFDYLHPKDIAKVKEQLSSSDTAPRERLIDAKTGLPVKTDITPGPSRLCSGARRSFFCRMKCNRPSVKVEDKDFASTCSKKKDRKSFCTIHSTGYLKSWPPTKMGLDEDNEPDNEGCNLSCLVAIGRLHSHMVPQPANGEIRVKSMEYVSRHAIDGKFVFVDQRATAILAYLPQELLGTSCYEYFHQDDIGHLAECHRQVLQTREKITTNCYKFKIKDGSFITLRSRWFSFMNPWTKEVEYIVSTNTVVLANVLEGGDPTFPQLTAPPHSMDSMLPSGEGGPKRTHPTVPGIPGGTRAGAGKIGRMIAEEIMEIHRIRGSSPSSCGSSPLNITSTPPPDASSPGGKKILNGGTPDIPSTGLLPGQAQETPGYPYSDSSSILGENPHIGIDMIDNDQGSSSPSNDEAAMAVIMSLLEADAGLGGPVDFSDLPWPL
UniProt P67870: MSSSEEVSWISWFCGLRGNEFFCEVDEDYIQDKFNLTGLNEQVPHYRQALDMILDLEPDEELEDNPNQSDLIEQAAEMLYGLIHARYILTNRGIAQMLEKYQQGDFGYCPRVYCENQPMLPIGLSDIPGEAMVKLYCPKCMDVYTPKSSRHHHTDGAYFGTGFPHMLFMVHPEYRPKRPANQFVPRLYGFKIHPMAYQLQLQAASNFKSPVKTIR
UniProt P67871: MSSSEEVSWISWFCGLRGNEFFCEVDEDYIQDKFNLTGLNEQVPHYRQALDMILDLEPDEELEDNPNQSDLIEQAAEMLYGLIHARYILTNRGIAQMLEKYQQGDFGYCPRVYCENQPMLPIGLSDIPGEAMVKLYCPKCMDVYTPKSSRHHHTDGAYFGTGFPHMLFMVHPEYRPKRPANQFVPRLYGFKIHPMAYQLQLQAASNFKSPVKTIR

A further assay concerns the target Myc-BMAL1-WT (UniProt Q9WTL8). The experiment in a line: co-IP; Myc-BMAL1 IP from supernatants of Dex-synchronized Bmal1-/- MEFs stably expressing Myc-BMAL1-WT, -S90A or -K537R, harvested 22 h after treatment; immunoblot for CK2β, CRY1/2 and CLOCK.
For another assay, the target named is GST-CK2α (UniProt P68400). Nature of the assay: pull-down; purified bacterially expressed GST-CK2 subunits mixed 1:1 with in vitro translated 35S-methionine labeled clock proteins, precipitated with glutathione Sepharose beads, SDS-PAGE and autoradiography; only the target purified.
In a further assay the target is GST-CK2α′ (UniProt P19784). Described as above.
The target in another assay is GST-CK2β (UniProt P67870). The assay is described as above.
Assay [2] addresses CK2β (mouse (endogenous in MEFs)) (UniProt P67871). The experiment in a line: co-IP; endogenous proteins from lysates of mouse embryonic fibroblasts (WT; also BMAL1-deficient, SIRT1KO, and CRYdKO stably expressing Myc-CRY1; unsynchronised or Dex-synchronised, harvested at intervals); IP with anti-BMAL1, anti-CK2α, anti-CK2β or anti-CRY1/2, immunoblot.

No constants are given. Whether binding was seen depends on the method and setting. In cells and extracts the contact can be indirect. Some results given as binding are weak or reduced against the parent protein; the word gives no strength. For some assays here: Where a sequence is shown, tags or fusion partners need not be part of it.

B1: CK2α (enzyme, UniProt Q60737 1-391)
chain: MSGPVPSRARVYTDVNTHRPREYWDYESHVVEWGNQDDYQLVRKLGRGKYSEVFEAINITNNEKVVVKILKPVKKKKIKREIKILENLRGGPNIITLADIVKDPVSRTPALVFEHVNNTDFKQLYQTLTDYDIRFYMYEILKALDYCHSMGIMHRDVKPHNVMIDHEHRKLRLIDWGLAEFYHPGQEYNVRVASRYFKGPELLVDYQMYDYSLDMWSLGCMLASMIFRKEPFFHGHDNYDQLVRIAKVLGTEDLYDYIDKYNIELDPRFNDILGRHSRKRWERFVHSENQHLVSPEALDFLDKLLRYDHQSRLTAREAMEHPYFYTVVKDQARMSSTSMAGGSTPVSSANMMSGISSVPTPSPLGPLAGSPVIAAANSLGIPVPAAAGAQQ
On to B1, for which, in assay [1], the binding entry is “binds”.

B2: CLOCK (protein, UniProt O08785 1-855)
chain: MVFTVSCSKMSSIVDRDDSSIFDGLVEEDDKDKAKRVSRNKSEKKRRDQFNVLIKELGSMLPGNARKMDKSTVLQKSIDFLRKHKETTAQSDASEIRQDWKPTFLSNEEFTQLMLEALDGFFLAIMTDGSIIYVSESVTSLLEHLPSDLVDQSIFNFIPEGEHSEVYKILSTHLLESDSLTPEYLKSKNQLEFCCHMLRGTIDPKEPSTYEYVRFIGNFKSLTSVSTSTHNGFEGTIQRTHRPSYEDRVCFVATVRLATPQFIKEMCTVEEPNEEFTSRHSLEWKFLFLDHRAPPIIGYLPFEVLGTSGYDYYHVDDLENLAKCHEHLMQYGKGKSCYYRFLTKGQQWIWLQTHYYITYHQWNSRPEFIVCTHTVVSYAEVRAERRRELGIEESLPETAADKSQDSGSDNRINTVSLKEALERFDHSPTPSASSRSSRKSSHTAVSDPSSTPTKIPTDTSTPPRQHLPAHEKMTQRRSSFSSQSINSQSVGPSLTQPAMSQAANLPIPQGMSQFQFSAQLGAMQHLKDQLEQRTRMIEANIHRQQEELRKIQEQLQMVHGQGLQMFLQQSNPGLNFGSVQLSSGNSNIQQLTPVNMQGQVVPANQVQSGHISTGQHMIQQQTLQSTSTQQSQQSVMSGHSQQTSLPSQTPSTLTAPLYNTMVISQPAAGSMVQIPSSMPQNSTQSATVTTFTQDRQIRFSQGQQLVTKLVTAPVACGAVMVPSTMLMGQVVTAYPTFATQQQQAQTLSVTQQQQQQQQQPPQQQQQQQQSSQEQQLPSVQQPAQAQLGQPPQQFLQTSRLLHGNPSTQLILSAAFPLQQSTFPPSHHQQHQPQQQQQLPRHRTDSLTDPSKVQPQ
Regarding B2, the binding result with Myc-BMAL1-WT is reported as “binds”.

B3: V5-CRY1 (protein, UniProt P97784 1-606)
chain: MGVNAVHWFRKGLRLHDNPALKECIQGADTIRCVYILDPWFAGSSNVGINRWRFLLQCLEDLDANLRKLNSRLFVIRGQPADVFPRLFKEWNITKLSIEYDSEPFGKERDAAIKKLATEAGVEVIVRISHTLYDLDKIIELNGGQPPLTYKRFQTLVSKMEPLEMPADTITSDVIGKCMTPLSDDHDEKYGVPSLEELGFDTDGLSSAVWPGGETEALTRLERHLERKAWVANFERPRMNANSLLASPTGLSPYLRFGCLSCRLFYFKLTDLYKKVKKNSSPPLSLYGQLLWREFFYTAATNNPRFDKMEGNPICVQIPWDKNPEALAKWAEGRTGFPWIDAIMTQLRQEGWIHHLARHAVACFLTRGDLWISWEEGMKVFEELLLDADWSINAGSWMWLSCSSFFQQFFHCYCPVGFGRRTDPNGDYIRRYLPVLRGFPAKYIYDPWNAPEGIQKVAKCLIGVNYPKPMVNHAEASRLNIERMKQIYQQLSRYRGLGLLASVPSNSNGNGGLMGYAPGENVPSCSSSGNGGLMGYAPGENVPSCSGGNCSQGSGILHYAHGDSQQTHSLKQGRSSAGTGLSSGKRPSQEEDAQSVGPKVQRQSSN
modifications: 35S-methionine label
As to B3, the binding entry in the assay with GST-CK2α, with GST-CK2α′ and with GST-CK2β was “binds” throughout.

B4: CRY1 (protein, UniProt P97784 1-606)
chain: B3 chain
As to B4, the binding entry in assay [2] is listed as “binds”.

B5: Myc-CRY1 (protein, UniProt P97784 1-606)
chain: B3 chain
For the molecule B5, in assay [2], the binding entry is reported as “binds”.

B6: V5-CRY2 (protein, UniProt Q9R194 1-592)
chain: MAAAAVVAATVPAQSMGADGASSVHWFRKGLRLHDNPALLAAVRGARCVRCVYILDPWFAASSSVGINRWRFLLQSLEDLDTSLRKLNSRLFVVRGQPADVFPRLFKEWGVTRLTFEYDSEPFGKERDAAIMKMAKEAGVEVVTENSHTLYDLDRIIELNGQKPPLTYKRFQALISRMELPKKPAVAVSSQQMESCRAEIQENHDDTYGVPSLEELGFPTEGLGPAVWQGGETEALARLDKHLERKAWVANYERPRMNANSLLASPTGLSPYLRFGCLSCRLFYYRLWDLYKKVKRNSTPPLSLFGQLLWREFFYTAATNNPRFDRMEGNPICIQIPWDRNPEALAKWAEGKTGFPWIDAIMTQLRQEGWIHHLARHAVACFLTRGDLWVSWESGVRVFDELLLDADFSVNAGSWMWLSCSAFFQQFFHCYCPVGFGRRTDPSGDYIRRYLPKLKGFPSRYIYEPWNAPESVQKAAKCIIGVDYPRPIVNHAETSRLNIERMKQIYQQLSRYRGLCLLASVPSCVEDLSHPVAEPGSSQAGSISNTGPRALSSGPASPKRKLEAAEEPPGEELTKRARVTEMPTQEPASKDS
modifications: 35S-methionine label
As to B6, the binding entry with GST-CK2α, in the assay with GST-CK2α′ and with GST-CK2β was “binds” throughout.

B7: CRY2 (protein, UniProt Q9R194 1-592)
chain: B6 chain
With B7, the binding entry in assay [2] is on record as “binds”.

The values above are taken from PMC4642984.
